Source: PubChem BioAssay AID624417 (National Center for Advancing Translational Sciences (NCATS), 2012)
Among all 410,000 compounds or so, about 6,400 (1.6%) were called active. The inconclusive results got no clear call from the source; some entries with a clear call stand among them for comparison. Calls come from the whole dose curve; as a rule, active = well fitted inhibition curve with a large enough effect; inconclusive = small, poorly fitted or top-dose-only effect; inactive = no such curve, though single readings can be large or run the other way. A potency beside an inconclusive call is a rough fit, not a confirmed value.

Biological target: Glucagon-like peptide 1 receptor (Homo sapiens) (UniProt P43220)
Assay: qHTS of GLP-1 Receptor Inverse Agonists (Inhibition Mode); note: nearly all actives have a fitted effect of over 55% in size
Conditions: HEK293 GLP-1R CRE-luciferase, luminescence, 24 h, GLP-1R form is constitutively active; series mostly up to 38.3 µM
How it was run: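 Inverse agonism was detected as reduced cAMP-driven luciferase luminescence after 24 h compound treatment. The cells were HEK293 clones expressing constitutively active human GLP-1R with the reporter. Reporter-only and GPR119 cell lines served as counterscreen controls.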
Potency is the fitted concentration of half-maximal effect; tags give direction and shape of the fitted curve.

UniProt P43220, sequence (P43220 whole entry, looked up): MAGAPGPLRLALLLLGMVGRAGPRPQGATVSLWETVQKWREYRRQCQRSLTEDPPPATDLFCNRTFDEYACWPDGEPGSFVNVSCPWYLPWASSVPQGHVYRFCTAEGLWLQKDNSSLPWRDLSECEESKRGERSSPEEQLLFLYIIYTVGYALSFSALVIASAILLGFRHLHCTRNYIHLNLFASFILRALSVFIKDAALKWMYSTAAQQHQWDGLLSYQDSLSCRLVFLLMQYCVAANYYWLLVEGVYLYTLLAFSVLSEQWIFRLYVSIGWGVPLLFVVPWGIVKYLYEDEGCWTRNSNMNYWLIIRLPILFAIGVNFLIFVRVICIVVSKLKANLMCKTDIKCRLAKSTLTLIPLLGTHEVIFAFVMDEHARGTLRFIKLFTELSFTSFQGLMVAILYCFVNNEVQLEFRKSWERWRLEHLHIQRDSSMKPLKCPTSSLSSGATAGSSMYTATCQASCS

Potency, active:
Cn1c(CN2CCCC2)nc2cc(NS(=O)(=O)c3ccc(Cl)cc3)ccc21 3.98 µM
CC(=O)c1ccc(N2CCc3ccccc3C2)c([N+](=O)[O-])c1 3.16 µM
O=C(Cc1ccc(Br)cc1)Nc1ccccc1Sc1ccccc1 10 µM
COc1ccc(N2CCN(CCNC(=O)Nc3ccc(C)c(Cl)c3)CC2)cc1 2.82 µM

Potency, inactive:
CCc1cccc(C)c1NC(=O)C(CC)n1nc(C)c2c(C)n(-c3ccccc3)nc2c1=O (stereo not given)
C=CCn1cc(-c2ccccc2)cc(C#N)c1=O
COc1ccc(C2=NNC(=O)CC2)cc1
CC(C)c1nc2oc3c(NCC4CCCO4)ncnc3c2c2c1COC(C)(C)C2 (stereo not given)
COc1cccc(-n2c(SCC(=O)N3CCc4ccccc43)nc3c([nH]c4ccccc43)c2=O)c1
Cc1cccc(N2CCN(S(=O)(=O)c3cn(C)c(C)n3)CC2)c1C
CCCCn1c(O)c(/C=C2\C=NN=C2c2ccccc2)sc1=S
COC(=O)c1ccc(CSc2nc3c([nH]c4ccccc43)c(=O)n2-c2ccc(F)cc2)o1
CCC1=NN(C(=O)Cc2ccc([N+](=O)[O-])cc2)C(O)(C(C)(C)C)C1 (stereo not given)
CCc1cccc(NC(=O)Cn2c(=O)n(-c3ccccc3C)c(=O)c3c2c2cc(C)ccc2n3C)c1
CCOC(=O)N1CCN(CC(=O)Nc2sccc2C#N)CC1
CCOC(=O)N1CCN(S(=O)(=O)c2cc([N+](=O)[O-])ccc2C)CC1
O=C(CN1C(=O)NC2(CCCCC2)C1=O)Nc1cccc(S(=O)(=O)N2CCCC2)c1
CCOc1ccc(-c2[nH]nc3c2C(c2ccc(O)cc2)C(C#N)=C(N)O3)cc1 (stereo not given)
CCc1ccc(C=C2SC(=S)N(CCCC(=O)Nc3ccc(C(=O)O)cc3)C2=O)cc1
CCNS(=O)(=O)c1ccc(C(=O)OCc2cc(=O)oc3cc(OC)ccc23)cc1

Potency, inconclusive:
COC(=O)c1ccc(COc2ccccc2/C=C(\C#N)C(=O)Nc2c(C)cccc2C)cc1 7.08 µM [inhibitor, partial curve, poor fit]
Cc1c(CCOC(=O)CC23CC4CC(CC(C4)C2)C3)sc[n+]1CC(=O)c1ccc(Br)cc1 10 µM [inhibitor, single point]
CCOC(=O)C1=C(COC(=O)C2(C)CC2(Cl)Cl)NC(=O)NC1c1ccc(OC)cc1 (stereo not given) 28.2 µM [inhibitor, single point]
COc1ccc(-c2nc(SCC(=O)Nc3ccccc3)c(-c3ccc(F)cc3)[nH]2)cc1OC 14.1 µM [inhibitor, single point]
CCCCCCNC(=O)O[C@H]1Cn2c(=O)ccc(=O)n2[C@@H]2CN(S(=O)(=O)c3ccc(C)cc3)C[C@]12O 4.47 µM [inhibitor, full curve, poor fit]
COc1ccc(OC)c(S(=O)(=O)N2Cc3ccccc3CC2C(=O)Nc2ccc(C)cc2C)c1 (stereo not given) 14.1 µM [inhibitor, single point]
CCc1ccc(C2CC(=O)c3c([nH]c(C(=O)OC4CCC(C)CC4)c3C)C2)cc1 (stereo not given) 8.91 µM [inhibitor, partial curve]
Cc1cccc(N2C(=O)N3[C@H](c4ccc(Br)cc4)[C@@H]4C(=O)N(C(C)(C)C)C(=O)[C@@H]4[C@]3(C)C2=O)c1 11.2 µM [inhibitor, partial curve, poor fit]
COc1ccc(S(=O)(=O)NCc2cccn2Cc2cccc(C)c2)cc1Cl 28.2 µM [inhibitor, single point]
CN(C)c1ccc(NC(=O)Nc2cccc(Cl)c2)cc1 11.2 µM [inhibitor, partial curve]
Cc1cc(NC(=O)CSc2c3c(nc4ccccc24)CCC3)no1 10 µM [inhibitor, partial curve]
C=C(C)C1CC=C(C)/C(=N\NC(=S)Nc2ccc(C)cc2)C1 (stereo not given) 5.01 µM [inhibitor, full curve, poor fit]
CN(Cc1ccccc1N1CCCC1)C(=O)c1cc2cc(Cl)ccc2o1 10 µM [inhibitor, partial curve, poor fit]
CCOc1ccc(N(CC(=O)Nc2ccc3c(c2)OCCO3)S(=O)(=O)c2c(C)noc2C)cc1 11.2 µM [inhibitor, partial curve]
Cc1cc(C)c(O)c(-c2cc(C(=O)NCc3ccccc3)[nH]n2)c1 15.8 µM [inhibitor, single point]
O=S1(=O)N[C@@H](Cc2ccccc2)COc2cc(N3CCSCC3)ccc21 11.2 µM [inhibitor, single point]
CCOC(=O)N/N=C\c1ccccc1OC/C=C/c1ccccc1 28.2 µM [inhibitor, single point]
COc1ccc(C2=C(c3ccccc3)OC(OC)c3cc(F)ccc32)cn1 (stereo not given) 8.91 µM [inhibitor, partial curve]
COC(=O)Cc1ccc(NC(=S)NCc2ccc(Cl)cc2)cc1 11.2 µM [inhibitor, partial curve, poor fit]
O=C(NCc1ccco1)C(c1ccccc1)N(Cc1ccccc1)C(=O)Cn1nnc2ccccc21 (stereo not given) 10 µM [inhibitor, partial curve, poor fit]
Cc1cc(OCc2cc(C(=O)N(C)CC3CCOCC3)no2)cc(C)c1Cl 11.2 µM [inhibitor, single point]
O=C(NCC1COc2ccccc2O1)c1ccc(Cl)c(S(=O)(=O)N2CCOCC2)c1 (stereo not given) 14.1 µM [inhibitor, partial curve, poor fit]
CCOc1ccccc1C(=O)Oc1c(S(=O)(=O)c2ccc(C)cc2)c(C)nn1-c1ccccc1 28.2 µM [inhibitor, single point]
CCOC(=O)CC(NC(=O)c1ccccc1F)c1ccc(C)cc1 (stereo not given) 22.4 µM [inhibitor, single point]
COc1cc(OC)cc(C(=O)NCC(=O)N2CC=C(c3ccccc3)CC2)c1 0.501 µM [inhibitor, full curve, poor fit]
Cc1c(CCOC(=O)c2ccc(N3CCOCC3)c([N+](=O)[O-])c2)sc[n+]1CC#N 28.2 µM [inhibitor, single point]
CCOc1ccc2nc(NC(=O)Cc3cccs3)sc2c1 0.501 µM [inhibitor, full curve, poor fit]
Cc1ccccc1CN1CCc2nc(N3CCN(c4ncccn4)CC3)ncc2C1 10 µM [inhibitor, single point]
COc1cc2c(c(OC)c1OC)-c1c(cc3c(c1O)OCO3)C[C@@H](C)[C@@H](C)C2 12.6 µM [inhibitor, single point]
CCc1c(C)sc(NC(=O)c2cc(C(C)C)on2)c1C#N 22.4 µM [inhibitor, single point]
Clc1ccccc1N1CCN(Cc2nnc(-c3ccccc3)o2)CC1 14.1 µM [inhibitor, single point]
N#CSCC(=O)c1cccc2ccccc12 12.6 µM [inhibitor, single point]
CCc1nnc(NC(=O)c2ccc(S(=O)(=O)N3CCCc4ccccc43)cc2)o1 12.6 µM [inhibitor, single point]
CC(C)NC(=O)N1Cc2cc(C(=O)NCC(F)(F)F)nc(-c3cccc(-c4cc5ccccc5o4)c3)c2[C@@H]1CCO 14.1 µM [inhibitor, partial curve, poor fit]
O=C(Nc1ccc(Cl)cc1)C1C2CCC3C(CCC21)C3(Cl)Cl (stereo not given) 7.94 µM [inhibitor, partial curve, poor fit]
COc1ccc(/C=C2\COc3ccccc3C2=O)cc1OC 28.2 µM [inhibitor, single point]
OC(COc1cccc2ccccc12)CN1CCN(c2ccccn2)CC1 (stereo not given) 0.501 µM [inhibitor, full curve, poor fit]
COc1ccc(C2C(C(=O)c3ccccc3)N3c4ccccc4C=CC3C2[N+](=O)[O-])cc1 (stereo not given) 10 µM [inhibitor, single point]
CC1(C(=O)NCc2cccc(C(F)(F)F)c2)CCN1Cc1ccc(-c2ccccc2)o1 (stereo not given) 5.62 µM [inhibitor, full curve, poor fit]
CCOc1ccc2[nH]cc(C(=O)NCCc3ccccc3)c(=O)c2c1 28.2 µM [inhibitor, single point]
C=CC[C@@H]1Cc2c(Br)ccc(Br)c2[C@@H](CC=C)N1 28.2 µM [inhibitor, single point]
CCCCN(C(=O)c1ccccc1Cl)C(CC(C)C)c1nc2ccccc2[nH]1 (stereo not given) 14.1 µM [inhibitor, single point]
CCOC(=O)N/N=C\c1cccc(OC)c1OC/C=C/c1ccccc1 11.2 µM [inhibitor, partial curve, poor fit]
Cc1ccc(SCCNC(=S)Nc2ccccc2)cc1 28.2 µM [inhibitor, single point]
COc1cc(SC)ccc1C(=O)NNC(=O)c1cc(C)oc1C 11.2 µM [inhibitor, single point]
